{"source": "PubChem BioAssay AID445", "about": "(National Center for Advancing Translational Sciences (NCATS), 2006)", "note": "The campaign covered roughly 110,000 compounds. About 40 (0.04%) were called active. This list was built around the results that the source calls inconclusive (neither active nor inactive); the mix of calls is not that of the screen. Calls follow the shape of the dose curve; as a rule, active = well fitted curve in the direction sought with a large enough effect in the signal ratio (not every such curve was filed as active); inconclusive = small, poorly fitted or top-dose-only effect, or a change in a side signal; inactive = flat fitted curve, though single readings scatter; the % refers to the signal ratio. A potency beside an inconclusive call is a rough fit, not a confirmed value."}
{"assay": "IkB Signaling; also: potency is read from the fitted curve at half-maximal effect;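 as to IkBa stabilization activation: 0% = basal untreated cells and 100% = reference inhibitor full response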", "settings": "ABC-DLBCL IkBa-CBG/CBR dual luciferase ratio (green luciferase fused to IkBa over red control in OCI-Ly3 lymphoma cells), 4 h; IkBa stabilization activation: at 57.1 µM (top of the series), scaled: untreated 0%, proteasome inhibitor 100% unless noted", "in_short": "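In this assay, an IκBα–CBG68 fusion accumulates when IKK-driven degradation is blocked; native CBR normalizes for cell number. OCI-Ly3 cells were treated 4 h with compound and doxycycline, then green and red light read after Chroma-Glo addition.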"}
{"compound": "CC(C)C1C(C#N)=C(N)Oc2n[nH]c(-c3cccs3)c21", "note": "(stereo not drawn)", "IkBa stabilization activation": "inconclusive: 2.07% [signal inhibitor]"}
{"compound": "Cc1ccc2c(c1)N(C(=O)N1CCC(C(=O)NC3CCCCCC3)CC1)CCO2", "IkBa stabilization activation": "inconclusive: 14.3% [signal inhibitor]"}
{"compound": "CN(C)c1ccc(-c2nc(-c3ccncc3)no2)cc1[N+](=O)[O-]", "IkBa stabilization activation": "inconclusive: 1.28% [signal inhibitor]"}
{"compound": "O=C1c2ccccc2C(=O)N1CCCSc1nc2ccccc2o1", "IkBa stabilization activation": "inconclusive: 4.69% [signal inhibitor]"}
{"compound": "CCc1nc2oc3cc(OC)ccc3c(=O)c2c(=O)n1-c1ccccc1", "Potency": "inconclusive: 1 µM [signal inhibitor, partial curve]"}
{"compound": "O=C(NCc1ccccc1Cl)C(=O)NCC(c1ccco1)S(=O)(=O)c1cccs1", "note": "(stereo not drawn)", "IkBa stabilization activation": "inactive"}
{"compound": "N#Cc1cccc(-c2nc(Nc3ccncc3)c3ccccc3n2)c1", "IkBa stabilization activation": "inactive: -5.43% [at 11.4 µM, scaled: untreated 0%, proteasome inhibitor 100%]"}
{"compound": "CCC1CCCCN1CCCNC(=O)c1cc2c(Cl)nc3ccc(C)cc3c2s1", "note": "(stereo not drawn)", "IkBa stabilization activation": "inactive"}
{"compound": "Cc1c2cnn(CC(=O)NCCc3ccccc3)c(=O)c2c(C)n1Cc1ccccc1Cl", "IkBa stabilization activation": "inconclusive: 0.914% [signal inhibitor]"}
{"compound": "CCC1CCCCN1CCCNC(=O)c1ccc2c(c1)N(Cc1cccc(C)c1)C(=O)c1ccccc1S2(=O)=O", "note": "(stereo not drawn)", "IkBa stabilization activation": "inconclusive: 2.2% [signal inhibitor]"}
{"compound": "Cc1[nH]n2c(=O)c(C#N)c(-c3ccccc3)nc2c1-c1ccccc1", "IkBa stabilization activation": "inconclusive: 17.8% [signal inhibitor]"}
{"compound": "COc1cc(C(=O)NCC(c2ccc(N(C)C)cc2)N2CCCC2)cc(OC)c1OC", "note": "(stereo not drawn)", "IkBa stabilization activation": "inconclusive: 2.94% [signal inhibitor]"}
{"compound": "CCOc1ccc(NC(=O)CSc2nc3nc(C)c(Cc4ccccc4)c(C)n3n2)cc1", "IkBa stabilization activation": "inconclusive: -1.25% [signal inhibitor]"}
{"compound": "CCc1ccc(NC(=O)CSc2nc(=O)n(Cc3cccnc3)c3c2CCC3)cc1", "IkBa stabilization activation": "inconclusive: -0.429% [signal inhibitor]"}
{"compound": "COCCOC(=O)C(C#N)c1nc2ccccc2nc1N1CCCC1", "note": "(stereo not drawn)", "IkBa stabilization activation": "inactive"}
{"compound": "CCc1ccccc1NC(=O)CSc1nc2c(oc3ccccc32)c(=O)n1-c1ccccc1", "IkBa stabilization activation": "inconclusive: 1.79% [signal inhibitor]"}
{"compound": "Cn1c(=O)c(-c2cccs2)nc2cncnc21", "IkBa stabilization activation": "inactive: 1.82% [at 11.4 µM, scaled: untreated 0%, proteasome inhibitor 100%]"}
{"compound": "CCN(CC)CCNC(=O)CCCCn1c(=S)[nH]c2c([nH]c3ccc(OC)cc32)c1=O", "IkBa stabilization activation": "inconclusive: 11.5% [signal inhibitor]"}
{"compound": "CCn1c2ccccc2c2nc3cc(S(=O)(=O)N4CCOCC4)ccc3nc21", "IkBa stabilization activation": "inconclusive: 15.2%"}
{"compound": "O=C(Nc1ncccc1O)c1cccc(S(=O)(=O)N2CCc3ccccc32)c1", "Potency": "inconclusive: 31.6 µM [rising, single point]"}
{"compound": "CSc1ccc(CCNC(=O)c2sc3ncccc3c2-n2cccc2)cc1", "IkBa stabilization activation": "inconclusive: 5.1% [signal inhibitor]"}
{"compound": "O=C(NCC(c1cccnc1)N1CCOCC1)C(=O)Nc1cccc(Cl)c1", "note": "(stereo not drawn)", "IkBa stabilization activation": "inconclusive: 2.6% [signal inhibitor]"}
{"compound": "Cc1ccc(C)c(N2CCN(C(=O)C(C)n3nc(C)c4sc5ccccc5c4c3=O)CC2)c1", "note": "(stereo not drawn)", "IkBa stabilization activation": "inactive"}
{"compound": "COC(=O)c1ccc(NC(=O)N2CCc3c([nH]c4ccccc34)C2c2ccc(C)cc2)cc1", "note": "(stereo not drawn)", "IkBa stabilization activation": "inconclusive: 2.55% [signal inhibitor]"}
{"compound": "CN(C)S(=O)(=O)N(CC(=O)NCCSCc1ccc(Cl)cc1Cl)c1ccccc1", "IkBa stabilization activation": "inconclusive: -5.14% [signal inhibitor]"}
{"compound": "COc1ccccc1Nc1nc(N)nc(CSc2nc(C)cc(C)n2)n1", "IkBa stabilization activation": "inactive"}
{"compound": "Cc1cc(C(=O)Nc2cccc(C(=O)O)c2)oc1C", "Potency": "inconclusive: 5.01 µM [signal inhibitor, partial curve]"}
{"compound": "COc1ccc(NC(=O)CN2C(=O)C(c3ccccc3)=NC23CCC(C)CC3)cc1Cl", "note": "(stereo not drawn)", "IkBa stabilization activation": "inconclusive: 0.409% [signal inhibitor]"}
{"compound": "CC(C)c1ccc(NC(=O)c2cc(S(=O)(=O)NCCc3ccccc3)ccc2F)cc1", "IkBa stabilization activation": "inconclusive: -0.88% [signal inhibitor]"}
{"compound": "COc1cc(C2CC(=O)N3CN(c4ccccc4C)CSC3=C2C#N)cc(OC)c1OC", "note": "(stereo not drawn)", "IkBa stabilization activation": "inactive"}
{"compound": "O=C1Cc2cc(S(=O)(=O)Nc3cccc(C(F)(F)F)c3)cc3c2N1CCC3", "IkBa stabilization activation": "inconclusive: 5.06% [signal inhibitor]"}
{"compound": "COc1ccc(C(C)C)cc1S(=O)(=O)NCCc1c(C)[nH]c2c(Cl)cccc12", "IkBa stabilization activation": "inconclusive: 2.86% [signal inhibitor]"}
{"compound": "C[C@H](NC(=O)OC(C)(C)C)c1nnc(SCc2ccc(Cl)cc2Cl)o1", "IkBa stabilization activation": "inconclusive: -1.03% [signal inhibitor]"}
{"compound": "Cc1c(N=CC=Nc2c(C)n(C)n(-c3ccccc3)c2=O)c(=O)n(-c2ccccc2)n1C", "IkBa stabilization activation": "inactive"}
{"compound": "CCc1ccccc1NC(=O)Cn1nc(C)c2nn(-c3ccc(Cl)cc3)c(C)c2c1=O", "IkBa stabilization activation": "inconclusive: -1.01% [signal inhibitor]"}
{"compound": "CCOC(=O)c1ccc(N2C(=O)c3n[nH]c(C)c3C2c2ccc(CC)cc2)cc1", "note": "(stereo not drawn)", "IkBa stabilization activation": "inactive"}
{"compound": "Cc1nnc(NC(=O)C(C)Sc2nncn2C)s1", "note": "(stereo not drawn)", "IkBa stabilization activation": "inactive"}
{"compound": "Cc1nc(N2CCN(Cc3nc4ccccc4[nH]3)CC2)c2oc3ccccc3c2n1", "IkBa stabilization activation": "inconclusive: 1.83% [signal inhibitor]"}
{"compound": "CCc1ccc(S(=O)(=O)c2cn(C)c3ccc(C)cc3c2=O)cc1", "IkBa stabilization activation": "inconclusive: 1.04% [signal inhibitor]"}
{"compound": "Cc1ccc(-n2nc(C(=O)N(C)c3ccccc3Cl)c3c4ccccc4n(C)c3c2=O)cc1", "IkBa stabilization activation": "inconclusive: -1.84% [signal inhibitor]"}
{"compound": "COc1cc(C2c3c(oc4ccc(Cl)cc4c3=O)C(=O)N2Cc2ccco2)cc(OC)c1OC", "note": "(stereo not drawn)", "IkBa stabilization activation": "inactive"}
{"compound": "COc1ccc(OC)c(NC(=O)CSc2ncccc2C(=O)O)c1", "IkBa stabilization activation": "inconclusive: 2.95% [signal inhibitor]"}
{"compound": "CCOC(=O)c1[nH]c(C)c(CCC(=O)N2CCN(c3ccc(Cl)cc3)CC2)c1C", "IkBa stabilization activation": "inconclusive: -0.0956% [signal inhibitor]"}
{"compound": "O=C(O)c1ccc(Nc2ncnc3scc(-c4ccccc4)c23)cc1", "IkBa stabilization activation": "inconclusive: 3.75% [signal inhibitor]"}
{"compound": "CCc1ccc2nc(N(Cc3cccnc3)C(=O)Cc3ccccc3)sc2c1", "IkBa stabilization activation": "inconclusive: 3.48% [signal inhibitor]"}
{"compound": "COc1cc(OC)cc(C(=O)Nc2cccc(C(C)=O)c2)c1", "IkBa stabilization activation": "inconclusive: 7.4% [signal inhibitor]"}
{"compound": "COc1ccc(Cc2c(C)nn(-c3nc(C)c(C(=O)Nc4cccc(C(C)=O)c4)s3)c2C)cc1", "IkBa stabilization activation": "inactive"}
{"compound": "COc1ccc2[nH]cc(C(=O)CN3CCCCC3)c2c1", "IkBa stabilization activation": "inactive"}
{"compound": "CCC(C(=O)NCc1ccccc1Cl)n1c(=O)c2cccn2c2ccccc21", "note": "(stereo not drawn)", "IkBa stabilization activation": "inconclusive: 9.15% [signal inhibitor]"}
{"compound": "Cc1ccc2c(c1)N(C(=O)c1ccc(F)cc1)C(C)(C)CC2(C)c1ccccc1", "note": "(stereo not drawn)", "IkBa stabilization activation": "inconclusive: 4.64% [signal inhibitor]"}
{"compound": "CCc1ccccc1N1C(=O)N(Cc2cc(=O)n3ccccc3n2)c2ccccc2S1(=O)=O", "IkBa stabilization activation": "inconclusive: -0.109% [signal inhibitor]"}
{"compound": "O=C(NCc1ccccc1)c1c2c(nc3ccccc13)C(=O)N(C1CCCCC1)C2", "IkBa stabilization activation": "inconclusive: -1.18% [signal inhibitor]"}
{"compound": "CCNc1ncc2nc(-c3cc(F)cc(F)c3)c(=O)n(CCC#N)c2n1", "IkBa stabilization activation": "inactive: -4.58% [at 11.4 µM, scaled: untreated 0%, proteasome inhibitor 100%]"}
{"compound": "CC(C)c1nn2c(=O)cc(COC(=O)c3cccc(NC(=O)CCc4ccccc4)c3)nc2s1", "Potency": "inconclusive: 20 µM [signal inhibitor]"}
{"compound": "O=C(CSc1oc(-c2ccc(F)cc2)nc1S(=O)(=O)c1ccccc1)c1ccc(Cl)cc1", "IkBa stabilization activation": "inconclusive: -1.84% [signal inhibitor]"}
{"compound": "CCN(Cc1ccccc1)C(=O)Cn1c(=O)cc(C)c2c(C)nn(-c3cccc(F)c3)c21", "IkBa stabilization activation": "inconclusive: 3.98% [signal inhibitor]"}
{"compound": "O=C(Oc1ccc(/C=N/O)cc1)c1ccccc1", "IkBa stabilization activation": "inactive"}
{"compound": "CC(C)c1ccc(NC(=O)C2CCC(CNS(=O)(=O)c3ccc4c(c3)CCCC(=O)N4)CC2)cc1", "note": "(stereo not drawn)", "IkBa stabilization activation": "inconclusive: 8.1% [signal inhibitor]"}
{"compound": "Cc1cc(-n2c(C)cc(C(=O)CSc3nnnn3-c3ccc(Cl)cc3)c2C)no1", "IkBa stabilization activation": "inactive"}
{"compound": "Cc1ccc(N(CC(=O)Nc2ccc(F)c(Cl)c2)S(=O)(=O)c2c(C)noc2C)cc1", "Potency": "inconclusive: 39.8 µM [signal inhibitor, single point]"}
{"compound": "COc1ccc(S(=O)(=O)N2CCCCC2)cc1C(=O)NC1CCS(=O)(=O)C1", "note": "(stereo not drawn)", "IkBa stabilization activation": "inactive"}
{"compound": "O=C(Nc1ccccc1)c1ccc(Cl)c(S(=O)(=O)Nc2ccccc2)c1", "IkBa stabilization activation": "inconclusive: 7.24% [signal inhibitor]"}
{"compound": "Cc1ccc(C(=O)c2cn(Cc3ccccc3)c3c(F)cc(F)cc3c2=O)cc1", "IkBa stabilization activation": "inconclusive: 2.15% [signal inhibitor]"}
{"compound": "N=C(N)SCC(=O)O", "IkBa stabilization activation": "inactive: -0.1% [at 11.4 µM, scaled: untreated 0%, proteasome inhibitor 100%]"}
{"compound": "CCS(=O)(=O)N1CCC2(CC1)OC(=O)C(C)=C2C(=O)NCc1ccc(OC)c(OC)c1", "IkBa stabilization activation": "inactive"}
{"compound": "C=CCOc1c(CNc2nccs2)cccc1OCC", "IkBa stabilization activation": "inactive"}
{"compound": "Cc1cccc(NS(=O)(=O)c2ccc(C)c(C(=O)OCC(=O)Nc3cc(C)on3)c2)c1", "IkBa stabilization activation": "inconclusive: 3.37% [signal inhibitor]"}
{"compound": "COc1ccc2[nH]cc(CCNc3nc(-c4ccccc4OC)nc4ccccc34)c2c1", "IkBa stabilization activation": "inactive: -7.39% [at 11.4 µM, scaled: untreated 0%, proteasome inhibitor 100%]"}
